No constants are given. Whether binding was seen depends on the method and setting. For part of these data: Binding seen in cells or lysates may run through a third protein. Some results given as binding are weak or reduced against the parent protein; the word gives no strength. Each block holds one substance with its values, some of them ahead of it.
Key:
[1] = molecular target: p65 fused to the Gal4 DBD (UniProt Q04206); experiment: two-hybrid; mammalian two-hybrid in 293T cells; Gal4-luc reporter (100 ng), 350 ng of each fusion plasmid; luciferase activity 48 hours post transfection
HA-tagged wild type p65 = HA-tagged wild type p65 (UniProt Q04206); experiment: co-IP; 293T cells co-transfected with Flag-DDX3 and HA-p65 (wt or deletion mutants); lysates immunoprecipitated with anti-HA antibody overnight at 4°C, protein A/G-agarose; blot with anti-Flag
[2] = molecular target: pHA-p65 (amino acids 1–332, RHD) (UniProt Q04206); experiment: as above
[3] = molecular target: pHA-p65 (amino acids 299–551) (UniProt Q04206); experiment: as above
[4] = molecular target: endogenous DDX3 (human (endogenous in 293T)) (UniProt O00571); experiment: co-IP; endogenous proteins; non-transfected 293T lysates immunoprecipitated with polyclonal anti-DDX3 antibody or IgG (control); blot with anti-p65
[5] = molecular target: recombinant GST-tagged DDX3 (human) (UniProt O00571); experiment: pull-down; GST pull-down; 50 ng GST-DDX3 or GST immobilised on glutathione resin beads at 4°C, 50 ng His-p65 added for 4 hours; washed with N-lysis buffer (0.15 mM NaCl, 1% NP-40, 50 mM Tris-HCl, pH 8.0, 5 mM EDTA); Western blot; both purified

Sequences of proteins named here, by UniProt entry; tags and fusion partners are left off. A change or cut given only in a name is not applied to a line headed by its entry. Residues count along the entry.
UniProt Q04206: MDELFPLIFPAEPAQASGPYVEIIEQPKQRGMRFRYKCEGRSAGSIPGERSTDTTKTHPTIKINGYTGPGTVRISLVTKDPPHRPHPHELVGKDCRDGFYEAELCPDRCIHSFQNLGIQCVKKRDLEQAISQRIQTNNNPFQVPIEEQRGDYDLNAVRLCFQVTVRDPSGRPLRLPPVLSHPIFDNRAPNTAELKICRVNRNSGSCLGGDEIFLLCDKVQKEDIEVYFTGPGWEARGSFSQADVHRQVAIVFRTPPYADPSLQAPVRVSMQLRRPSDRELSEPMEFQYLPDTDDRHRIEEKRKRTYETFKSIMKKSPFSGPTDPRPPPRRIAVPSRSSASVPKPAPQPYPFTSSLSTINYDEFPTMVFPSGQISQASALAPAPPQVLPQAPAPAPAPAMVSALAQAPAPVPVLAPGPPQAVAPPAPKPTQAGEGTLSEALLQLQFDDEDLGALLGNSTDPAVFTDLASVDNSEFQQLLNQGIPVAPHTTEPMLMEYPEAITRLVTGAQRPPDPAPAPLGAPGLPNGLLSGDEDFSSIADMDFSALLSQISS
pHA-p65 (amino acids 1–332, RHD): residues 1-332 of Q04206
pHA-p65 (amino acids 299–551): residues 299-551 of Q04206
UniProt O00571: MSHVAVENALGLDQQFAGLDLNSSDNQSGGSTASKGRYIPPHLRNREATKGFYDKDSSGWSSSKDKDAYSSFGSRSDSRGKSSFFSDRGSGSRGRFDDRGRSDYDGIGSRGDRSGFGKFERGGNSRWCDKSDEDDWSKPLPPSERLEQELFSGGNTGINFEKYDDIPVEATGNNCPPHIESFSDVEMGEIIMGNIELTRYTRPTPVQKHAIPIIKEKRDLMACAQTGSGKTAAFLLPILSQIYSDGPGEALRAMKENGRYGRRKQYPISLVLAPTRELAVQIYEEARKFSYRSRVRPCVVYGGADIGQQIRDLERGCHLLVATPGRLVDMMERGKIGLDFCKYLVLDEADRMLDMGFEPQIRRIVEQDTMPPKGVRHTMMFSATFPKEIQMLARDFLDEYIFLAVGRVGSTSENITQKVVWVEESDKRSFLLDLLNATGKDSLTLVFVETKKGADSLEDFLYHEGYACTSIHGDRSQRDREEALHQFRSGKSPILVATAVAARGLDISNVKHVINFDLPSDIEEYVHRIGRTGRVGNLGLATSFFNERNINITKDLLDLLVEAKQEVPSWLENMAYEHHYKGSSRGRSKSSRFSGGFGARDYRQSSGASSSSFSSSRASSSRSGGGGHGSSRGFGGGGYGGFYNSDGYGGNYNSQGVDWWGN

binding [1]: binds
Substance: DDX3 fused to the VP16 activation domain (from UniProt O00571 1-662)

binding (HA-tagged wild type p65): binds
binding [2]: binds
binding [3]: no binding
Substance: Flag-tagged DDX3 (from UniProt O00571 1-662)

binding [4]: binds
Substance: endogenous p65 (from UniProt Q04206 1-551)

binding [5]: binds
Substance: recombinant His-tagged p65 (from UniProt Q04206 1-551)
